Measurements reported in PubChem BioAssay AID485294 (National Center for Advancing Translational Sciences (NCATS), 2010).
In all, about 370,000 compounds went through this assay and about 150 (0.041%) were called active. The shares of active, inactive and inconclusive entries below differ from those in the screen. The call rests on the fitted dose curve; in most records, active means well fitted inhibition curve with a large enough effect; inconclusive means small, poorly fitted or top-dose-only effect; inactive means flat fitted curve, though single readings scatter. Potencies of inconclusive entries are left out as doubtful fits.
Further: nearly all actives have a fitted effect of over 25% in size.
Potency means the concentration at half of the fitted maximal effect; tags describe the fitted curve by direction and shape.

The compounds below were run against Beta-lactamase (Escherichia coli (strain K12)) (UniProt P00811) (assay: qHTS Inhibitors of AmpC Beta-Lactamase (assay with detergent)). Conditions: AmpC hydrolysis of nitrocefin, absorbance 480 nm, 0.01% Triton; series mostly up to 114 µM.
UniProt P00811, sequence (P00811 whole entry, looked up): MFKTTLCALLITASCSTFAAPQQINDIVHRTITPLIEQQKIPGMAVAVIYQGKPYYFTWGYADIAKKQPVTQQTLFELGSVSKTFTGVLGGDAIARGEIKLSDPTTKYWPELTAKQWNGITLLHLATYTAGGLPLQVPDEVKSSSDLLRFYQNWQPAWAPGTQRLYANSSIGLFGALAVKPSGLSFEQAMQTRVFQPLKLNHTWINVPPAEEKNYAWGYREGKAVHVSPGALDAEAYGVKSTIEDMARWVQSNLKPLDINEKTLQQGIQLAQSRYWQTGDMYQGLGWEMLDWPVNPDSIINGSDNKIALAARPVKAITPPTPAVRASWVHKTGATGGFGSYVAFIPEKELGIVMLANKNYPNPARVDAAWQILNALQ
Method in brief: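 20 mM phosphate pH 7.0 + 0.01% (detergent screen) or 0.0001% Triton X-100; 5.3 nM AmpC reagent; cpd preinc 15 min RT; nitrocefin (800 uM stock) to start; A480 q20 s × 4 min; Activity was normalised to no-enzyme and no-compound control wells.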
For COc1ccc2[nH]c(C(=O)Nc3cccc(C)n3)cc2c1, the Potency was “inactive”.
For COc1ccc(OCc2nnc(SCC(N)=O)n2-c2ccccc2OC)cc1, the Potency was inconclusive [inhibitor, full curve, poor fit].
With O=C(CSc1ccccc1)Nc1ccc(-c2nc3ccccc3[nH]2)cc1 the Potency was inconclusive [inhibitor, partial curve].
For CCOc1ccc(CN(C)CC(=O)NNC(=O)c2ccc(Cl)cc2)cc1OC, the Potency was “inactive”.
In the case of COc1ccc(NC(=O)C2=C(C)Nc3ncnn3C2c2ccccc2C(F)(F)F)c(OC)c1 (configuration not stated), the Potency is reported as inconclusive [inhibitor, full curve, poor fit].
For CCCS(=O)(=O)N1CCN(C(=O)c2ccc(-c3ccccc3)cc2)CC1, the Potency was inconclusive [inhibitor, full curve, poor fit].
For Cc1ccc(C)c(OCC(=O)NNC(=O)CCN2CCN(c3ccccc3)CC2)c1, the Potency was “inactive”.
C=CCn1c(P(C)(=O)O)nc2ccccc21 was tested, and the Potency was inconclusive [inhibitor, single point].
With COc1ccc(N2CCN(CCCNC(=O)CC3Oc4ccc(C)cc4NC3=O)CC2)cc1 (configuration not stated) the Potency was inconclusive [inhibitor, partial curve].
Fc1cc(Br)ccc1NC(=S)Nc1cccnc1 was tested, and the Potency was inconclusive [inhibitor, single point].
In the case of Cc1ccc(CSc2ccc(S(=O)(=O)N3CCOCC3)cn2)cc1, the Potency is reported as inconclusive [inhibitor, partial curve, poor fit].
N#CC1=C(N)OC2=C(C(=O)CCC2)[C@]12C(=O)N(CC(N)=O)c1ccccc12 was tested, and the Potency was inconclusive [inhibitor, full curve].
In the case of O=c1c2ccccc2nc2c3ccccc3c(NCCN3CCOCC3)nn12, the Potency is reported as inconclusive [inhibitor, full curve, poor fit].
For CCc1ccc(-n2c(=O)c3c4c(sc3n(CC(=O)c3ccc(Cl)cc3)c2=O)CCC4)cc1, the Potency was “inactive”.
With O=C(NC1(C(F)(F)F)NC(=O)N(Cc2cccnc2)C1=O)c1cccs1 (configuration not stated) the Potency was inconclusive [inhibitor, full curve, poor fit].
O=C(CCS(=O)(=O)c1cccc2nsnc12)Nc1ccc(F)cc1 was tested, and the Potency was inconclusive [inhibitor, single point].
For Cc1ccc(Cl)cc1NC(=O)C(=O)NCC(c1cccnc1)N1CCc2ccccc21 (configuration not stated), the Potency was “inactive”.
With CCC(c1nnnn1Cc1ccco1)N(CCc1ccccc1)Cc1cc2cc(C)ccc2[nH]c1=O (configuration not stated) the Potency was inconclusive [inhibitor, partial curve].
For CSc1ccc(CN(C)CC(=O)Nc2c(F)cccc2F)cc1, the Potency was inconclusive [inhibitor, full curve, poor fit].
In the case of CC(C)(C)C(=O)NCCc1csc2nc(-c3ccc(F)cc3)nn12, the Potency is reported as “inactive”.
With CC(NCC1(N2CCOCC2)CCCCC1)C(=O)N1CCc2ccccc21 (configuration not stated) the Potency was inconclusive [inhibitor, full curve, poor fit].
In the case of Cc1cc2c(=O)n(C)c(SCC(=O)Nc3ccccc3)nc2s1, the Potency is reported as “inactive”.
In the case of O=C(O)C(C(=O)/C=C/c1ccco1)=C1SCCS1, the Potency is reported as inconclusive [inhibitor, full curve, poor fit].
In the case of COc1ccc(NS(=O)(=O)c2cc(OCC(N)=O)c(C)cc2Cl)cc1, the Potency is reported as inconclusive [inhibitor, full curve, poor fit].
N#Cc1cc2c(nc1SCC(=O)N1CCOCC1)CCCCC2 was tested, and the Potency was “inactive”.
In the case of COc1cc(NC(=O)c2nc(-c3ccncc3)no2)cc(OC)c1OC, the Potency is reported as “inactive”.
In the case of CCOC(=O)C1(Cc2cccc(Cl)c2)CCCN(C(=O)CN2C(=O)CSC2=O)C1 (configuration not stated), the Potency is reported as inconclusive [inhibitor, full curve].
In the case of CCC(C)(C)NC(=O)C(c1cccn1C)N(C(=O)Cn1nnc2ccccc21)c1ccc(OC)cc1OC (configuration not stated), the Potency is reported as inconclusive [inhibitor, single point].
For CCOC(=O)Cn1nc(C)c(NC(=O)COc2ccc(Cl)cc2C)c1C, the Potency was “inactive”.
For CN(C(=O)COC(=O)c1cc(NS(=O)(=O)c2cc([N+](=O)[O-])ccc2Cl)ccc1O)C1CCCCC1, the Potency was inconclusive [inhibitor, full curve, poor fit].
In the case of CCOC(=O)C1=C(C)Nc2nc(SCC)[nH]c(=O)c2C1c1ccncc1 (configuration not stated), the Potency is reported as “inactive”.
With O=C(CNC(=O)C(c1ccccc1)c1ccccc1)OCC(=O)c1cccs1 the Potency was inconclusive [inhibitor, partial curve, poor fit].
CCC1CCCCN1CCCNC(=O)CN1C(=O)CSc2ccc(S(=O)(=O)N3CCOCC3)cc21 (configuration not stated) was tested, and the Potency was inconclusive [inhibitor, full curve, poor fit].
In the case of COc1cccc(-c2ccc(=O)n(CC(=O)Nc3cc4c(cc3NC(C)=O)OCCO4)n2)c1, the Potency is reported as inconclusive [inhibitor, partial curve, poor fit].
In the case of Cc1ccc2c(c1)-c1c(cnn1CC(=O)NC(C)CCc1ccco1)CO2 (configuration not stated), the Potency is reported as inconclusive [inhibitor, partial curve].
For CC(Nc1cccc2ccccc12)C(=O)N/N=C/c1ccc([N+](=O)[O-])cc1 (configuration not stated), the Potency was inconclusive [inhibitor, single point].
With O=C(CSc1nnc(-c2ccc(OC(F)F)cc2)o1)N1CCOCC1 the Potency was “inactive”.
Fc1ccc(CSc2nnc(-c3cnccn3)n2Cc2ccco2)cc1 was tested, and the Potency was “inactive”.
With COc1cc(C(=O)Nc2nnc(C(C)(C)C)s2)c([N+](=O)[O-])cc1OC the Potency was “inactive”.
COc1ccc2nc(NC(=O)c3nc(S(=O)(=O)Cc4cccc(C)c4)ncc3Cl)sc2c1 was tested, and the Potency was “inactive”.
With COc1ccc(CCN2C(=O)CC(NNC(=O)c3ccccc3Br)C2=O)cc1 (configuration not stated) the Potency was inconclusive [inhibitor, full curve, poor fit].
In the case of O=C(NCCN1CCCC1)c1ccc2c(c1)N(Cc1ccc(F)cc1)C(=O)c1ccccc1S2=O (configuration not stated), the Potency is reported as inconclusive [inhibitor, full curve, poor fit].
In the case of Cc1c(NC(=O)C(C)Sc2n[nH]c(N)n2)c(=O)n(-c2ccccc2)n1C (configuration not stated), the Potency is reported as inconclusive [inhibitor, full curve, poor fit].
With O=C(Nc1cccnc1)c1sc(Nc2ccccc2)nc1-c1ccccc1 the Potency was “inactive”.
O=P(Oc1ccccc1)(Oc1ccccc1)C(O)c1ccc(Cl)cc1 (configuration not stated) was tested, and the Potency was inconclusive [inhibitor, partial curve, poor fit].
For O=C(NCc1ccc2c(c1)OCO2)C1CCCN(S(=O)(=O)c2cccc3nonc23)C1 (configuration not stated), the Potency was inconclusive [inhibitor, single point].
With CNC(=O)Oc1ccc(-c2cn3cc(C)ccc3n2)cc1 the Potency was inconclusive [inhibitor, partial curve, poor fit].
For Cc1ccc(-c2cc(C(=O)Oc3ccccc3)c3cc(C)ccc3n2)cc1, the Potency was “inactive”.
For Cc1ccc2oc3c(c(=O)c2c1)C(c1cccc(O)c1)N(c1ccccn1)C3=O (configuration not stated), the Potency was “inactive”.
CC(c1ccccc1)n1cc(C(=O)NCC2COc3ccccc3O2)nn1 (configuration not stated) was tested, and the Potency was inconclusive [inhibitor, single point].
For CCOc1ccc2[nH]c(=O)c(=O)[nH]c2c1, the Potency was inconclusive [inhibitor, single point].
In the case of CCN(CC(=O)N1CCCCCC1)S(=O)(=O)c1ccc(C)cc1, the Potency is reported as inconclusive [inhibitor, full curve, poor fit].
For Cc1cc(OC(=O)c2c(C)cc(O)cc2O)cc(O)c1C(=O)O, the Potency was inconclusive [inhibitor, partial curve].
With Cc1ccc(-c2noc(-c3ccccc3C(=O)N3CCN(C)CC3)n2)cc1 the Potency was inconclusive [inhibitor, full curve, poor fit].
CN(C(=O)c1ccno1)c1nnc(-c2cnccn2)s1 was tested, and the Potency was inconclusive [inhibitor, full curve, poor fit].
In the case of O=c1c2ccccc2nc(COc2ccccc2)n1/N=C/c1cn[nH]c1-c1ccccc1, the Potency is reported as “inactive”.
In the case of OC1(c2ccccc2)C/C(=N\n2cnnc2)C=C1c1ccccc1 (configuration not stated), the Potency is reported as inconclusive [inhibitor, full curve, poor fit].
For CCOc1ccc2nc(NC3=NCN(Cc4ccco4)CN3)nc(C)c2c1, the Potency was inconclusive [inhibitor, full curve, poor fit].
COC(=O)c1ccc(NC(=S)NCC2CC2)cc1 was tested, and the Potency was “inactive”.
With CC12CCC(=O)N1C(C(=O)N1CCN(S(=O)(=O)c3ccc(Br)cc3Cl)CC1)CS2 (configuration not stated) the Potency was inconclusive [inhibitor, single point].
For CC(=O)OC1CC[C@]2(C#N)[C@H]3CC[C@]4(C)[C@H](C5C=CC(=O)O5)CCC4(O)C3CCC2(O)C1 (some centres not stated), the Potency was “inactive”.
With O=C(CNC(=O)C1CCCCC1)NCc1ccco1 the Potency was inconclusive [inhibitor, partial curve].
With c1cncc(-c2nc3ccccc3o2)c1 the Potency was “inactive”.
In the case of Clc1ccccc1CNc1ncnc2c1c(-c1ccccc1)cn2-c1ccccc1, the Potency is reported as “inactive”.
In the case of CCC(C)(C)n1nnnc1C(c1cccnc1)N1CCCc2ccccc21 (configuration not stated), the Potency is reported as inconclusive [inhibitor, partial curve, poor fit].
In the case of COc1ccc(N(CC(=O)N2CCN(C)CC2)S(=O)(=O)c2ccccc2)cc1, the Potency is reported as inconclusive [inhibitor, single point].
For CN(c1ccc(F)cc1)S(=O)(=O)c1ccc(Cl)c(C(=O)NCC(c2ccco2)N2CCCCC2)c1 (configuration not stated), the Potency was inconclusive [inhibitor, full curve, poor fit].
